# Source: PubChem BioAssay AID686979 (National Center for Advancing Translational Sciences (NCATS), 2013)
# Hit rate of the full screen: of about 420,000 compounds, about 50,000 (12%) were called active. The inconclusive results got no clear call from the source; some entries with a clear call stand among them for comparison. Calls follow the shape of the dose curve; as a rule, active = well fitted inhibition curve with a large enough effect; inconclusive = small, poorly fitted or top-dose-only effect; inactive = flat fitted curve, though single readings scatter. No potency is given beside an inconclusive call; the fits are too rough.
# Test: qHTS for Inhibitors of human tyrosyl-DNA phosphodiesterase 1 (TDP1): qHTS in cells in presence of CPT; also: nearly all actives have a fitted effect of over 55% in size
# Settings: chicken DT40 Tdp1-/-;hTDP1 cells + 20 nM CPT, ATP luminescence, 48 h; activity change, negative = growth inhibition: at 46.2 µM (top of the series)
# Outline: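 Chicken DT40 Tdp1-/- cells complemented with human TDP1, 400 cells/well, exposed to compounds plus 20 nM camptothecin for at least 48 h at 37 C; viability read as ATP content by CellTiter-Glo luminescence.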
# % is scaled to controls: 0 for no effect and ±100 for the full control effect; potency is read from the fitted curve at half-maximal effect; tags tell the direction and shape of the fitted curve.
Compound,Potency,"activity change, negative = growth inhibition"
COCC(=O)N1CCC(Oc2ccc(C(=O)NC(C)c3csc(C)n3)cc2)CC1 (centres undefined),inactive,
Cn1cnnc1Sc1cc(N2CCN(S(=O)(=O)c3ccc(Cl)c(Cl)c3)CC2)ccc1[N+](=O)[O-],"inconclusive [inhibitor, single point]",
COC(=O)c1ccccc1NC(=O)CSc1n[nH]c(-c2cccnc2)n1,"inconclusive [inhibitor, single point]",
COc1ccc(CCNC(=O)C2CCN(S(=O)(=O)N3CC(C)CC(C)C3)CC2)cc1OC (centres undefined),"inconclusive [inhibitor, single point]",
Cc1ccc(Cl)c(OCC(=O)NN2CCN(C)CC2)c1,"inconclusive [inhibitor, single point]",
CCCCC(=O)N(C)c1c(CC)nc2c(OCC=C(C)C)cccn12,"inconclusive [inhibitor, single point]",
CCOC(=O)Cn1c(=O)oc2cc(S(=O)(=O)N3CCN(C(=O)c4ccco4)CC3)ccc21,inactive,
Cc1c2c(=O)n(-c3nc4ccccc4s3)nc-2cc(O)n1Cc1ccccc1,active: 20.6 µM,
O=C(NCC1CC1)c1ccc(-c2cn[nH]c2)c2ccoc12,"inconclusive [inhibitor, single point]",
CCOC(=O)C1(C)CCN1C(=O)c1cc(-c2ccc(Cl)cc2)oc1C (centres undefined),active: 18.4 µM,
Cc1ccc(S(=O)(=O)C(CNC(=O)C(=O)NCCc2ccc(Cl)cc2)c2cccs2)cc1 (centres undefined),"inconclusive [inhibitor, full curve]",
CCOC(=O)N1CCN(S(=O)(=O)N2CCCC(C(=O)NCCc3ccc(C)cc3)C2)CC1 (centres undefined),"inconclusive [inhibitor, single point]",
COc1ccc(-n2cnc3ccccc32)cc1,,inconclusive: -33.4% [inhibitor]
O=C(/C=C/c1ccco1)N1CCN(C/C=C/c2ccccc2)CC1,"inconclusive [inhibitor, single point]",
COc1cc(CCNC(C)=O)c(C(=O)/C=C/c2cccc(OC)c2OC)cc1OC,,inactive: 2.25% [at 9.04 µM]
CC(C)C[C@H]1CN([C@@H](Cc2ccc(O)cc2)CN2CCC[C@H]2CN2C(=O)C(=O)NC[C@@H]2Cc2ccccc2)C(=O)C(=O)N1CC1CCCCC1,"inconclusive [inhibitor, single point]",
COc1ccc2[nH]c3nc(SCc4nnc(-c5ccc(C)cc5)o4)nnc3c2c1,active: 25.9 µM,
COc1cc(NC(=O)CS(=O)(=O)c2ccccc2)cc(OC)c1OC,inactive,
O=C(Cn1c(=O)nc(-c2ccccc2)c2cc(Cl)ccc21)NCc1ccc(Cl)cc1,"inconclusive [inhibitor, single point]",
CCOc1ccc(CCNC(=O)CS(=O)(=O)Cc2nc(-c3ccccc3F)oc2C)cc1,"inconclusive [inhibitor, single point]",
CCOC(=O)C1CCN(C(=O)c2cc(C)n(C(C)(C)C)n2)CC1,inactive,
CCOC(=O)c1[nH]c(C)c(C(=O)c2cc(F)ccc2F)c1C,active: 0.82 µM,
C[C@H](CO)N1C[C@H](C)[C@H](CN(C)S(=O)(=O)c2cn(C)cn2)Oc2ccc(NC(=O)Nc3ccc(C(F)(F)F)cc3)cc2CC1=O,"inconclusive [inhibitor, single point]",

Compound,Potency,"activity change, negative = growth inhibition"
CCOCCN1CCN(c2c(C)c(C)nc3cc(-c4cc(OC)cc(OC)c4)nn23)CC1,"inconclusive [inhibitor, single point]",
COc1ccc(-c2nc3cccc(C)n3c2NCC2CCCO2)cc1O (centres undefined),"inconclusive [inhibitor, full curve, poor fit]",
CCc1nc2ccccc2[nH]c1=O,inactive,
O=C(NCC1CC1)c1onc(CSc2ccc(F)cc2)c1C(=O)NCC1CC1,"inconclusive [inhibitor, single point]",
CC[n+]1c(-c2ccccc2)csc1Nc1c(C)n(C)n(-c2ccccc2)c1=O,"inconclusive [inhibitor, single point]",
CCOc1ccc(CCNC(=O)c2ccc3c(c2)N(Cc2ccccc2F)C(=O)c2ccccc2S3=O)cc1OCC (centres undefined),"inconclusive [inhibitor, single point]",
Cc1ccc(N=c2ssnc2Cl)cc1,active: 5.8 µM,
CC1CCc2sc(C(=O)Nc3ccc(N4CCOCC4)cc3)cc2C1 (centres undefined),"inconclusive [inhibitor, single point]",
CCCNC1=C(N(C(C)=O)c2cccc(F)c2)C(=O)c2ccccc2C1=O,active: 2.59 µM,
O=C(c1cc(C2CC2)nn1-c1ccccc1)N1CCN(Cc2ccccc2F)CC1,active: 16.4 µM,
COc1ccc(C(CC(=O)Nc2cc(OC)c(OC)c(OC)c2)N2Cc3ccccc3C2=O)cc1 (centres undefined),active: 23.1 µM,
CCN1CCN(CCCNC(=O)Cn2c(-c3cccs3)cc3cc(F)ccc32)CC1,"inconclusive [inhibitor, single point]",
CCOC(=O)c1cc(-c2ccccc2)nn1CC1CC(c2ccc(OC)cc2)=NO1 (centres undefined),"inconclusive [inhibitor, single point]",
O=C(COCc1cc(-c2ccc3c(c2)OCO3)on1)Nc1cc(C(F)(F)F)ccc1Cl,"inconclusive [inhibitor, partial curve]",
COCc1cccc(-c2csc(C(C)(O)c3cccc(F)c3)n2)c1 (centres undefined),"inconclusive [inhibitor, partial curve, poor fit]",
Cc1ccc(C)c(Nc2nn3c(=O)c4cc5c(cc4nc3s2)OCO5)c1,active: 16.4 µM,
Cn1c(=O)c2cc(NC(=O)NCc3ccccc3)ccc2n1C/C=C/c1ccccc1,active: 7.31 µM,
Cc1snc(S(=O)(=O)/C(C#N)=N/Nc2ccc(C(F)(F)F)cc2)c1C#N,inactive,
O=C(Nc1ccccc1)c1cc(C2COCCN2C(=O)CCCc2ccccc2)on1 (centres undefined),"inconclusive [inhibitor, single point]",
CC1(C(=O)NS(=O)(=O)c2cccc(C#N)c2)CCN1C(=O)C1(c2ccccc2)CC1 (centres undefined),inactive,
CCn1c(SCC(=O)N2CCCCC2)nc2c(c1=O)SCC2,inactive,
Nc1ccc2oc(-c3ccccc3Cl)cc(=O)c2c1O,"inconclusive [inhibitor, single point]",
COc1ccccc1N1CCN(S(=O)(=O)CCNC(=O)Cc2ccc(Cl)cc2)CC1,"inconclusive [inhibitor, single point]",

Compound,Potency,"activity change, negative = growth inhibition"
CC(Oc1ccc(F)cc1)C(=O)Nc1nc(-c2ccccn2)cs1 (centres undefined),active: 1.3 µM,
C[C@]12c3[nH]c4cc(-c5ccco5)ccc4c3CCN1C(=O)[C@@H](CC(=O)NCCC1=CCCCC1)C[C@@H]2C(=O)N1CCCCC1,"inconclusive [inhibitor, single point]",
O=c1c(S(=O)(=O)c2ccccc2)cn(Cc2cccc(F)c2)c2cc(N3CCCC3)c(F)cc12,"inconclusive [inhibitor, partial curve]",
CCOC(=O)N1CCc2c(sc(NCc3cccs3)c2C(=O)Nc2ccc(OC)cc2OC)C1,"inconclusive [inhibitor, single point]",
O=C(O)c1c[nH]c2ccc([N+](=O)[O-])cc2c1=O,inactive,
O=C(c1cc(C(F)(F)F)cc(C(F)(F)F)c1)N1CCC2(CCN(Cc3nccs3)CC2)CC1,"inconclusive [inhibitor, single point]",
N[C@H](C(=O)O)c1cccc(O)c1,inactive,
COc1ccccc1-c1nnc(NC(=O)c2ccc(S(=O)(=O)N3CCCC3)cc2)o1,active: 23.1 µM,
COc1ccc(C(CNC(=O)c2ccc(S(=O)(=O)Nc3ccccc3C)cc2)N2CCOCC2)cc1 (centres undefined),"inconclusive [inhibitor, single point]",
O=C(Nc1ccc(-c2csc(-c3ccccc3)n2)cc1)c1ccccc1,,inconclusive: -34.4% [inhibitor]
CCOP1(=O)OCC2OC(n3cnc4c(N)ncnc43)C(O)C2O1 (centres undefined),inactive,
Cc1ccc(NC(=O)C2CCN(S(=O)(=O)c3ccc(C(C)(C)C)cc3)CC2)cc1S(=O)(=O)N1CCOCC1,"inconclusive [inhibitor, single point]",
Cc1ccc(CNc2nc(N)c([N+](=O)[O-])c(Nc3cccc(F)c3)n2)cc1,"inconclusive [inhibitor, partial curve]",
O=C(O)CCCC(=O)Nc1ccn(-c2ccccc2)n1,active: 18.4 µM,
Cc1ccc(N2C(=O)CCC2=O)c(C)c1,inactive,
COc1ccc(C(C[N+](=O)[O-])c2c(-c3ccccc3)cc3ccccn23)c(OC)c1 (centres undefined),active: 2.91 µM,
CN(C)c1cc(N/N=C/c2ccc(Cl)cc2)nc(N(C)C)n1,"inconclusive [inhibitor, single point]",
Nc1nnc(SCC(=O)NNC(=O)c2ccc([N+](=O)[O-])cc2)s1,inactive,
Cc1cc2nc(C)c3c(n2n1)CCC3,inactive,
CCOc1cc(C(=O)N2CCN(c3ccccn3)CC2)cc(OCC)c1OCC,inactive,
O=C1c2ccccc2C(Nc2ccc(S(=O)(=O)N3CCCCC3)cc2)N1c1ccccn1 (centres undefined),"inconclusive [inhibitor, single point]",
CCOc1ccc(N(CC(=O)NCCC2=CCCCC2)S(=O)(=O)c2ccccc2)cc1,"inconclusive [inhibitor, single point]",
O=C(CN1C(=O)C(=O)c2ccccc21)NCCc1ccccc1,"inconclusive [inhibitor, single point]",
